± gives the standard deviation of the averaged measurements. Some of the results follow.
What follows are sequences tested on PfAP2-I AP2 domain 3 (GST-tagged) (assay: gcPBM binding intensity (ln(normalized median fluorescence intensity)); higher = stronger DNA binding).
Outline: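 Each value is the highest Masliner-normalised natural-log median intensity across replicate spots of either orientation of a probe. The probes were primer-extended double-stranded 36-bp intergenic genomic sequences on an Agilent 4 × 180k array, alongside negative controls, exposed for 1 h to GST-tagged P. falciparum DNA-binding domains expressed in E. coli. Bound protein was picked up with Alexa488 anti-GST antibody and scanned at 488 nm.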

| Sequence | gcPBM binding intensity (ln) |
| --- | --- |
| AAAAAAAAAAAGTTTACACACATTAATTTTACATAT [CACACA_site834] | 7.42 ± 0.54 |
| AAAAAAATACCATTCACACATATTCTTTTATTATTT [CACACA_site5113] | 7.68 ± 0.54 |
| ATAAATATAATAATCATACACACCAAAGAGAATATT [CACACA_site1888] | 7.82 ± 0.55 |
| AAAGTTATTATGCAATAATTATGATAATTAATATAT [TGCATGCA_negctrl_site316] | 7.99 ± 0.44 |
| ATGACTTACATATATAGTACTTTGTTTTGGAGTTGC [XGTACX_site94] | 7.58 ± 0.59 |
| TATGAGGAAACGTGGTGTACTTTTTTTTAATAAAAA [XGTACX_site1351] | 8.3 ± 0.092 |
| CATATAAAAATATATGCACACAAATAAAAAATTATA [CACACA_site9210] | 8.94 ± 0.39 |
| ATATTTAAATAATATTCACACACAAAATTATATTTT [CACACA_site7955] | 7.66 ± 0.57 |
| ATTTCTCAATCGTAATGTACAAAAAAAAGGGAAAAG [XGTACX_site2781] | 7.9 ± 0.58 |
| ACAAACAAAGAAAGAACACACATACACAATATACCT [CACACA_site5566] | 7.97 ± 0.59 |
| ACATATATATATATATATATATATATATAATATTTA [CACACA_negctrl_site633] | 8.38 ± 0.42 |
| ATTATGCTACAAGGAGAACACACAATTGCCACTTTT [CACACA_site8673] | 8.28 ± 0.64 |
| TTTTTTTTGTGGTGTCGTACATATGTTTGTTTTAAG [XGTACX_site1759] | 8.11 ± 0.45 |
| CCACGAGAATATATAGTGCATAATAATTTTTTTTTG | 11.1 ± 0.4 |
| GGTGATAATAAGCATACACACACACCCAAAAAAAAA [CACACA_site8137] | 8.05 ± 0.34 |
| AAAAAAAAAAAGAAAGCACACAATACATATGTATAA [CACACA_site1137] | 7.93 ± 0.3 |
| TAAATTTTTAAATACACACATACACCCATACAGACA [CACACA_site548] | 8.52 ± 0.071 |
| ATATATATCAGACACACACACATGTTTTAAAACTAT [CACACA_site77] | 8.24 ± 0.56 |
| TTATTTTAATAACCTACACACATTTTGTATATTTTA [CACACA_site4000] | 7.71 ± 0.4 |
| TTATAAATATTCTTGGGTACTTAAGATGATATGTAA [XGTACX_site5496] | 7.67 ± 0.38 |
| AAATGATGGAAAAAATAAATTTTTGTACAAAAATTA [CACACA_negctrl_site814] | 7.58 ± 0.5 |
| ATATATATATTATTTCGTACATAATTATTTGCCTTA [XGTACX_site350] | 9.13 ± 0.21 |

| Sequence | gcPBM binding intensity (ln) |
| --- | --- |
| TGATACTTTTTTTGTAGTACTCCTAAAATTATAAAA [XGTACX_site4340] | 7.75 ± 0.41 |
| TTTTTTTTATTTTAATGTACATTTTTTATTTGTTAT [XGTACX_site7189] | 7.85 ± 0.47 |
| TAATAAAATATGTACGTGCACATAATTATACTAAAA | 10.3 ± 0.18 |
| AAAAAAAAAAAAGAAACACACATATTTATATTTATA [CACACA_site6213] | 7.5 ± 0.25 |
| AAAAAAAAAAAAAATTGTACAAAAAAAATAAATAAA [XGTACX_site6816] | 7.8 ± 0.26 |
| TTTTTCTATAAAAAAAAAAAAAAAAAATATATATAT [TGCATGCA_negctrl_site535] | 9.01 ± 0.12 |
| TTGTATATTTTATGTACACACAATAAGTTAATATAA [CACACA_site4655] | 8.12 ± 0.22 |
| AAAATAATGTATATATGTACATATAAATATATATAT [XGTACX_site8081] | 8.88 ± 0.014 |
| ATAAAAGGAAGAAAATGTACATATAATTATATGCAT [XGTACX_site8421] | 7.93 ± 0.3 |
| TATTATTGCATATTTACACACGTACTAATTTAAACA [CACACA_site970] | 8.91 ± 0.42 |
| TGTATACTATTAAATTGTACACATAAGAAATATTAT [XGTACX_site5839] | 8.01 ± 0.26 |
| TTTTACAAATATAATGGGTGAGCTATCAAAATAAAT [GTGCAC_negctrl_site91] | 7.78 ± 0.7 |
| ATGTTTTTAAAAAATTGTACATAATATTTTTTATAA [XGTACX_site7692] | 7.89 ± 0.38 |
| TATATATATATATATATAATACGAATTTGTAGTACA [TGCATGCA_negctrl_site224] | 9.49 ± 0.56 |
| ATATTAATTCGTTTTGTACACACATAATGAATAATT [CACACA_site8701] | 7.71 ± 0.4 |
| ATAAAAATCATGTTGGTGCGAAATTTTATTATCAGA [GTGCAC_site9735] | 8.93 ± 0.18 |
| AATTATTTACCCTATACACACAAAACAGACTAAAAA [CACACA_site6688] | 8.04 ± 0.54 |
| TTATGTATAAACACACGTACACACACTAAGTATATC [XGTACX_site3254] | 8.04 ± 0.38 |
| AAGGTATGATTAATCACACACATAAATATATATACA [CACACA_site2658] | 7.84 ± 0.51 |
| TTTAAAAAGATATATACACACATATAAATAAATATA [CACACA_site6436] | 7.65 ± 0.52 |
| ATTATATTTTTAAGTACACACATATATATATATATA [CACACA_site5925] | 9.36 ± 0.28 |
| AGCCTCGGGGTCATATATATATATATATATATATAT [CACACA_negctrl_site512] | 9.39 ± 0.59 |

| Sequence | gcPBM binding intensity (ln) |
| --- | --- |
| CCACGTATAATATGTACACACACATATATACAAAAA [CACACA_site8208] | 8.1 ± 0.16 |
| AATATATATACTTTTTTTTTTTTTTTTTTTTTTTTT [CACACA_negctrl_site520] | 9.745 ± 0.064 |
| TTTAGCACAAACAAAAAAAAAATAGAAAAAAATATA [CACACA_negctrl_site1772] | 7.59 ± 0.61 |
| TATGTTTACATATACGTGCACATGAATGTATACATT [GTGCAC_site9894] | 10.7 ± 0.29 |
| ACAAATTGTTAAAGGTGTACAATACATATATAAGAA [XGTACX_site4906] | 8.46 ± 0.56 |
| AAAAAATAAATAAATAGTACTTTAAAAGAAAAAAAA [XGTACX_site5051] | 7.62 ± 0.63 |
| AAATAAAAAATGGAAATCTTAACAAGAATCATTAAC [CACACA_negctrl_site1626] | 7.51 ± 0.57 |
| TATATACAGAATATATGTACATATTCATTTTATATT [XGTACX_site5139] | 7.5 ± 0.4 |
| AAAGAAAACCAAGTGGTGCATTTTCGTTACTTCATC | 10.2 ± 0.16 |
| CAATGTTACTATAATACACACAATATGTATTTGTCT [CACACA_site6668] | 7.82 ± 0.59 |
| CATATTTTGAACTTCACACATATATATATATATATA [CACACA_site4228] | 9.54 ± 0.71 |
| AATAATTGTTATAGTTGTACAATACATATATTACAA [XGTACX_site30] | 7.72 ± 0.6 |
| CCTTTCTATTGAAAATGTACATATATATTATTATAT [XGTACX_site5527] | 7.86 ± 0.39 |
| AATAATTGTAGACATGCACACACAAATATTATATAT [CACACA_site8181] | 8.14 ± 0.76 |
| TGTATATATAAAAATATACACACTGTATTATTGTAA [CACACA_site3757] | 7.38 ± 0.47 |
| AAATTAAAAGAAAATACACACCTGTGGGTGCTTATA [CACACA_site5143] | 9.4 ± 0.52 |
| TATTTATTCACTTATTGTACTTATATATATAATAAA [XGTACX_site6147] | 8.04 ± 0.38 |
| ATTTTTTTTTGTTTAATGTTATGTGGTCATTAAATT [CACACA_negctrl_site1177] | 7.94 ± 0.38 |
| ATATATTTTTTTTAGCGTACATGCAAAAAAAAAAAA [XGTACX_site4590] | 8.28 ± 0.67 |
| TCATAAATTAAACACACACACACATCTGGATACCCC [CACACA_site9096] | 8.19 ± 0.63 |
| TTTTGTTGTTGTTGTTGTACATAAATAATAAAATAT [XGTACX_site8681] | 8.04 ± 0.28 |
| AATTAACCGAAACACACACACATATATATATATATA [CACACA_site3963] | 9.28 ± 0.29 |

| Sequence | gcPBM binding intensity (ln) |
| --- | --- |
| TATACACACAGACATGCATGCACATATATATATACA [TGCATGCA_site30] | 8.56 ± 0.5 |
| TATACACTTGTAATAACACACATTATTTTTTTTTTT [CACACA_site1324] | 7.54 ± 0.67 |
| ATAAAAAATTTAAGTATTTTTTACAAACCTATAAAT [GTGCAC_negctrl_site51] | 7.38 ± 0.62 |
| TTATATTTATATGTAATACAAAATAACAAAAAATTT [CACACA_negctrl_site1721] | 7.53 ± 0.59 |
| TATATATATATATCCACACACATACATATATTAATA [CACACA_site69] | 9.26 ± 0.5 |
| TTGGTAATTTTAAAATGTACTTATTATATATATATA [XGTACX_site5642] | 8.94 ± 0.14 |
| TTTTTTATGATTAACACACACACAAAAAAAAAAAAA [CACACA_site4130] | 8.05 ± 0.49 |
| TCATGTAACCATTCATGTACTCAAAAAAAAAAAAAA [XGTACX_site1027] | 8.11 ± 0.71 |
| TTTTATATATATATATATATATATATATATGTATAT [CACACA_negctrl_site173] | 8.66 ± 0.17 |
| AAATGAAAGAACAGCACACATATATATTATATATAA [CACACA_site2002] | 7.8 ± 0.54 |
| AAAAAAAAAACAAATACACACGCACCCAAAAAAAAA [CACACA_site8166] | 8.7 ± 0.38 |
| AACATATTTTTTCTTAAACACACACCGATATATATA [CACACA_site8919] | 8.26 ± 0.7 |
| AATATATATTTCTAAGATAAAACCCAAGGATAAAAA [CACACA_negctrl_site735] | 7.7 ± 0.63 |
| TCTGTAAATATGTATACACACATATCTGATCAATAT [CACACA_site5743] | 8.02 ± 0.43 |
| ATTTCATTAAAGATTACATGCAATTCTATATTATTT [TGCATGCA_site260] | 7.67 ± 0.46 |
| AAAACACGCGGACACACACACACACGCCCACATATA [CACACA_site7105] | 8.34 ± 0.42 |
| AACATAAATTACTTTTTACACACTAATATAAAATAC [CACACA_site8297] | 8.04 ± 0.47 |
| AATTGCTCGATATATGCACACAGTTTTGTTATTTTT [CACACA_site8465] | 9.02 ± 0.45 |
| ACTTTCAAGGATGTACGTACATATGTATTTTATAAC [XGTACX_site6714] | 8.25 ± 0.35 |
| ATAAAAATAAAAGACGCATGTTCTTAAAATAAGAAC [TGCATGCA_site189] | 7.39 ± 0.7 |
| GTGTGATCTTTTGAAAGTACATTTTTTTTTTTTTTT [XGTACX_site6311] | 8.54 ± 0.65 |
| ATATATATATATAATGCACACATTATGAATTATGTA [CACACA_site3384] | 11.3 ± 0.26 |

Source: the supplement of paper PMC11417369
